Test results as given in publication PMC3419181.
No constants are given. Whether binding was seen depends on the method and setting. For some assays here: In cells and extracts the contact can be indirect. Some results given as binding are weak or reduced against the parent protein; the word gives no strength. For some assays here: Sequences can lack the tags named with a protein. Each block holds one molecule with its values, some of them ahead of it.

What was measured:
[1] = biological target: TNIK (endogenous, HEK293) (human (endogenous in HEK293)) (UniProt Q9UKE5); test: co-IP; HEK293 cells transfected with LMP1 constructs or LMP1-TNFR1 chimeras; endogenous TNIK immunoprecipitated with anti-TNIK; immunoblot with anti-LMP1 (CS1-4) or anti-HA (3F10)
HA-TNIK (human) [2] = biological target: HA-TNIK (human) (UniProt Q9UKE5); test: co-IP; HEK293 cells co-transfected with tagged TNIK and the tagged partner, with pSV-LMP1 co-expressed; tagged TNIK immunoprecipitated by anti-HA (12CA5) or anti-Flag (6F7); immunoblot
HA-TNIK (human) [3] = biological target: HA-TNIK (human) (UniProt Q9UKE5); test: co-IP; HEK293 cells co-transfected with tagged TNIK (or HA-TNIK domain constructs) and the tagged partner, without LMP1; tagged TNIK immunoprecipitated by anti-HA (12CA5) or anti-Flag (6F7); immunoblot
[4] = biological target: TRAF2- and Nck-interacting kinase (TNIK), endogenous in lymphoblastoid cells (human (endogenous in LCL 721 and LCL-TEV.5)) (UniProt Q9UKE5); test: co-IP; endogenous proteins from LCL 721 lysates (3 to 5 mg total protein); immunoprecipitation with anti-TNIK or anti-LMP1 (1G6-3) coupled to protein-G-sepharose; immunoblot
GST-TNIK-KD(KM) (human) = biological target: T1, GST-TNIK-KD(KM) (human) (UniProt Q9UKE5); test: pull-down; 1 µg His-TRAF incubated 1 h at 4°C in 500 µl TBS pH 7.4, 0.1% BSA, 0.5% Tween 20 with GST-TNIK domains or GST immobilised on glutathione sepharose; bound TRAF detected by immunoblot; both purified
T1 sequence: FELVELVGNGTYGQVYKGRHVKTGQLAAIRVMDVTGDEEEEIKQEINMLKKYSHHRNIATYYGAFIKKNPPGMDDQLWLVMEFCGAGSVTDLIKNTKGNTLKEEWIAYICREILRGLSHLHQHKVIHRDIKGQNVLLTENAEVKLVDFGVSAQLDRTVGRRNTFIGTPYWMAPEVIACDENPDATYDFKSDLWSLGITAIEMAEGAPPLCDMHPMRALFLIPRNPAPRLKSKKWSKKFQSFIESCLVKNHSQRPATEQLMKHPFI

[5] = biological target: Flag-TNIK (HEK293) (human) (UniProt Q9UKE5); test: co-IP; HEK293 cells co-transfected with tagged TNIK and the tagged partner, with pSV-LMP1 co-expressed; tagged TNIK immunoprecipitated by anti-HA (12CA5) or anti-Flag (6F7); immunoblot
[6] = biological target: Flag-TNIK (HEK293) (human) (UniProt Q9UKE5); test: co-IP; HEK293 cells co-transfected with tagged TNIK (or HA-TNIK domain constructs) and the tagged partner, without LMP1; tagged TNIK immunoprecipitated by anti-HA (12CA5) or anti-Flag (6F7); immunoblot

Molecule: HA-LMP1Δ371–386 (from UniProt P03230 1-370) (domain or fragment)
- binding [1]: no binding

B1: Flag-TAK1 (protein, UniProt O43318 1-606)
chain: MSTASAASSSSSSSAGEMIEAPSQVLNFEEIDYKEIEVEEVVGRGAFGVVCKAKWRAKDVAIKQIESESERKAFIVELRQLSRVNHPNIVKLYGACLNPVCLVMEYAEGGSLYNVLHGAEPLPYYTAAHAMSWCLQCSQGVAYLHSMQPKALIHRDLKPPNLLLVAGGTVLKICDFGTACDIQTHMTNNKGSAAWMAPEVFEGSNYSEKCDVFSWGIILWEVITRRKPFDEIGGPAFRIMWAVHNGTRPPLIKNLPKPIESLMTRCWSKDPSQRPSMEEIVKIMTHLMRYFPGADEPLQYPCQYSDEGQSNSATSTGSFMDIASTNTSNKSDTNMEQVPATNDTIKRLESKLLKNQAKQQSESGRLSLGASRGSSVESLPPTSEGKRMSADMSEIEARIAATTAYSKPKRGHRKTASFGNILDVPEIVISGNGQPRRRSIQDLTVTGTEPGQVSSRSSSPSVRMITTSGPTSEKPTRSHPWTPDDSTDTNGSDNSIPMAYLTLDHQLQPLAPCPNSKESMAVFEQHCKMAQEYMKVQTEIALLLQRKQELVAELDQDEKDQQNTSRLVQEHKKLLDENKSLSTYYQQCKKQLEVIRSQQQKRQGTS
- binding (HA-TNIK (human) [2]): binds
- binding (HA-TNIK (human) [3]): binds

B3: His-TRAF6(310–522) (domain or fragment, UniProt Q9Y4K3 310-522)
chain: DHQIRELTAKMETQSMYVSELKRTIRTLEDKVAEIEAQQCNGIYIWKIGNFGMHLKCQEEEKPVVIHSPGFYTGKPGYKLCMRLHLQLPTAQRCANYISLFVHTMQGEYDSHLPWPFQGTIRLTILDQSEAPVRQNHEEIMDAKPELLAFQRPTIPRNPKGFGYVTFMHLEALRQRTFIKDDTLLVRCEVSTRFDMGSLRREGFQPRSTDAGV
- binding (GST-TNIK-KD(KM) (human)): no binding (tested: 1 µg of His-TRAF6(310–522) in 500 µl)

B4: Flag-IKKβ (protein, UniProt O14920 1-756)
chain: MSWSPSLTTQTCGAWEMKERLGTGGFGNVIRWHNQETGEQIAIKQCRQELSPRNRERWCLEIQIMRRLTHPNVVAARDVPEGMQNLAPNDLPLLAMEYCQGGDLRKYLNQFENCCGLREGAILTLLSDIASALRYLHENRIIHRDLKPENIVLQQGEQRLIHKIIDLGYAKELDQGSLCTSFVGTLQYLAPELLEQQKYTVTVDYWSFGTLAFECITGFRPFLPNWQPVQWHSKVRQKSEVDIVVSEDLNGTVKFSSSLPYPNNLNSVLAERLEKWLQLMLMWHPRQRGTDPTYGPNGCFKALDDILNLKLVHILNMVTGTIHTYPVTEDESLQSLKARIQQDTGIPEEDQELLQEAGLALIPDKPATQCISDGKLNEGHTLDMDLVFLFDNSKITYETQISPRPQPESVSCILQEPKRNLAFFQLRKVWGQVWHSIQTLKEDCNRLQQGQRAAMMNLLRNNSCLSKMKNSMASMSQQLKAKLDFFKTSIQIDLEKYSEQTEFGITSDKLLLAWREMEQAVELCGRENEVKLLVERMMALQTDIVDLQRSPMGRKQGGTLDDLEEQARELYRRLREKPRDQRTEGDSQEMVRLLLQAIQSFEKKVRVIYTQLSKTVVCKQKALELLPKVEEVVSLMNEDEKTVVRLQEKRQKELWNLLKIACSKVRGPVSGSPDSMNASRLSQPGQLMSQPSTASNSLPEPAKKSEELVAEAHNLCTLLENAIQDTVREQDQSFTALDWSWLQTEEEEHSCLEQAS
- binding (HA-TNIK (human) [2]): binds

B6: His-TRAF2(311–501) (domain or fragment, UniProt Q12933 311-501)
chain: QDKIEALSSKVQQLERSIGLKDLAMADLEQKVLEMEASTYDGVFIWKISDFARKRQEAVAGRIPAIFSPAFYTSRYGYKMCLRIYLNGDGTGRGTHLSLFFVVMKGPNDALLRWPFNQKVTLMLLDQNNREHVIDAFRPDVTSSSFQRPVNDMNIASGCPLFCPVSKMEAKNSYVRDDAIFIKAIVDLTGL
- binding (GST-TNIK-KD(KM) (human)): no binding (tested: 1 µg of His-TRAF2(311–501) in 500 µl)

B7: HA-TAB2 (protein, UniProt Q9NYJ8 1-693)
chain: MAQGSHQIDFQVLHDLRQKFPEVPEVVVSRCMLQNNNNLDACCAVLSQESTRYLYGEGDLNFSDDSGISGLRNHMTSLNLDLQSQNIYHHGREGSRMNGSRTLTHSISDGQLQGGQSNSELFQQEPQTAPAQVPQGFNVFGMSSSSGASNSAPHLGFHLGSKGTSSLSQQTPRFNPIMVTLAPNIQTGRNTPTSLHIHGVPPPVLNSPQGNSIYIRPYITTPGGTTRQTQQHSGWVSQFNPMNPQQVYQPSQPGPWTTCPASNPLSHTSSQQPNQQGHQTSHVYMPISSPTTSQPPTIHSSGSSQSSAHSQYNIQNISTGPRKNQIEIKLEPPQRNNSSKLRSSGPRTSSTSSSVNSQTLNRNQPTVYIAASPPNTDELMSRSQPKVYISANAATGDEQVMRNQPTLFISTNSGASAASRNMSGQVSMGPAFIHHHPPKSRAIGNNSATSPRVVVTQPNTKYTFKITVSPNKPPAVSPGVVSPTFELTNLLNHPDHYVETENIQHLTDPTLAHVDRISETRKLSMGSDDAAYTQALLVHQKARMERLQRELEIQKKKLDKLKSEVNEMENNLTRRRLKRSNSISQIPSLEEMQQLRSCNRQLQIDIDCLTKEIDLFQARGPHFNPSAIHNFYDNIGFVGPVPPKPKDQRSIIKTPKTQDTEDDEGAQWNCTACTFLNHPALIRCEQCEMPRHF
- binding [5]: binds
- binding [6]: binds weakly

The next lines start with the values.

- binding [4]: binds
B2: TAK1 (endogenous, LCL 721) (protein, UniProt O43318 1-606)
chain: MSTASAASSSSSSSAGEMIEAPSQVLNFEEIDYKEIEVEEVVGRGAFGVVCKAKWRAKDVAIKQIESESERKAFIVELRQLSRVNHPNIVKLYGACLNPVCLVMEYAEGGSLYNVLHGAEPLPYYTAAHAMSWCLQCSQGVAYLHSMQPKALIHRDLKPPNLLLVAGGTVLKICDFGTACDIQTHMTNNKGSAAWMAPEVFEGSNYSEKCDVFSWGIILWEVITRRKPFDEIGGPAFRIMWAVHNGTRPPLIKNLPKPIESLMTRCWSKDPSQRPSMEEIVKIMTHLMRYFPGADEPLQYPCQYSDEGQSNSATSTGSFMDIASTNTSNKSDTNMEQVPATNDTIKRLESKLLKNQAKQQSESGRLSLGASRGSSVESLPPTSEGKRMSADMSEIEARIAATTAYSKPKRGHRKTASFGNILDVPEIVISGNGQPRRRSIQDLTVTGTEPGQVSSRSSSPSVRMITTSGPTSEKPTRSHPWTPDDSTDTNGSDNSIPMAYLTLDHQLQPLAPCPNSKESMAVFEQHCKMAQEYMKVQTEIALLLQRKQELVAELDQDEKDQQNTSRLVQEHKKLLDENKSLSTYYQQCKKQLEVIRSQQQKRQGTS

- binding [4]: binds
B5: IKKβ (endogenous, LCL 721) (protein, UniProt O14920 1-756)
chain: MSWSPSLTTQTCGAWEMKERLGTGGFGNVIRWHNQETGEQIAIKQCRQELSPRNRERWCLEIQIMRRLTHPNVVAARDVPEGMQNLAPNDLPLLAMEYCQGGDLRKYLNQFENCCGLREGAILTLLSDIASALRYLHENRIIHRDLKPENIVLQQGEQRLIHKIIDLGYAKELDQGSLCTSFVGTLQYLAPELLEQQKYTVTVDYWSFGTLAFECITGFRPFLPNWQPVQWHSKVRQKSEVDIVVSEDLNGTVKFSSSLPYPNNLNSVLAERLEKWLQLMLMWHPRQRGTDPTYGPNGCFKALDDILNLKLVHILNMVTGTIHTYPVTEDESLQSLKARIQQDTGIPEEDQELLQEAGLALIPDKPATQCISDGKLNEGHTLDMDLVFLFDNSKITYETQISPRPQPESVSCILQEPKRNLAFFQLRKVWGQVWHSIQTLKEDCNRLQQGQRAAMMNLLRNNSCLSKMKNSMASMSQQLKAKLDFFKTSIQIDLEKYSEQTEFGITSDKLLLAWREMEQAVELCGRENEVKLLVERMMALQTDIVDLQRSPMGRKQGGTLDDLEEQARELYRRLREKPRDQRTEGDSQEMVRLLLQAIQSFEKKVRVIYTQLSKTVVCKQKALELLPKVEEVVSLMNEDEKTVVRLQEKRQKELWNLLKIACSKVRGPVSGSPDSMNASRLSQPGQLMSQPSTASNSLPEPAKKSEELVAEAHNLCTLLENAIQDTVREQDQSFTALDWSWLQTEEEEHSCLEQAS

- binding [4]: binds
B8: TAB2 (endogenous, LCL 721) (protein, UniProt Q9NYJ8 1-693)
chain: MAQGSHQIDFQVLHDLRQKFPEVPEVVVSRCMLQNNNNLDACCAVLSQESTRYLYGEGDLNFSDDSGISGLRNHMTSLNLDLQSQNIYHHGREGSRMNGSRTLTHSISDGQLQGGQSNSELFQQEPQTAPAQVPQGFNVFGMSSSSGASNSAPHLGFHLGSKGTSSLSQQTPRFNPIMVTLAPNIQTGRNTPTSLHIHGVPPPVLNSPQGNSIYIRPYITTPGGTTRQTQQHSGWVSQFNPMNPQQVYQPSQPGPWTTCPASNPLSHTSSQQPNQQGHQTSHVYMPISSPTTSQPPTIHSSGSSQSSAHSQYNIQNISTGPRKNQIEIKLEPPQRNNSSKLRSSGPRTSSTSSSVNSQTLNRNQPTVYIAASPPNTDELMSRSQPKVYISANAATGDEQVMRNQPTLFISTNSGASAASRNMSGQVSMGPAFIHHHPPKSRAIGNNSATSPRVVVTQPNTKYTFKITVSPNKPPAVSPGVVSPTFELTNLLNHPDHYVETENIQHLTDPTLAHVDRISETRKLSMGSDDAAYTQALLVHQKARMERLQRELEIQKKKLDKLKSEVNEMENNLTRRRLKRSNSISQIPSLEEMQQLRSCNRQLQIDIDCLTKEIDLFQARGPHFNPSAIHNFYDNIGFVGPVPPKPKDQRSIIKTPKTQDTEDDEGAQWNCTACTFLNHPALIRCEQCEMPRHF
